The target of test [1] is T1, GST tagged PAK4PxxP (proline rich region of PAK4, amino acids 31-322) (UniProt O96013).
T1 sequence: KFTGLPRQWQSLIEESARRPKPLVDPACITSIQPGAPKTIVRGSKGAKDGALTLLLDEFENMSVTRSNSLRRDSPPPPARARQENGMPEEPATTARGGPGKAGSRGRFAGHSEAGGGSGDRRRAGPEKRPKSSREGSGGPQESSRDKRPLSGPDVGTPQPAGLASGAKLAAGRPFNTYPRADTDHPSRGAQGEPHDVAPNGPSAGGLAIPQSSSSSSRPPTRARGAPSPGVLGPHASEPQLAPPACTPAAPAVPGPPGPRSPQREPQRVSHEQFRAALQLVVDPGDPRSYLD
Put plainly: pull-down; GST-PAK4 or GST-PAK4 derivatives on glutathione beads as bait; lysates of HEK293T cells expressing GFP-tagged p85alpha constructs; blot with anti-GFP; only the target purified.

By UniProt entry, the sequences of proteins in these tests, tags left out. Where a name states a change or a piece, a line headed by the entry shows the natural chain unless it says otherwise.
UniProt P27986: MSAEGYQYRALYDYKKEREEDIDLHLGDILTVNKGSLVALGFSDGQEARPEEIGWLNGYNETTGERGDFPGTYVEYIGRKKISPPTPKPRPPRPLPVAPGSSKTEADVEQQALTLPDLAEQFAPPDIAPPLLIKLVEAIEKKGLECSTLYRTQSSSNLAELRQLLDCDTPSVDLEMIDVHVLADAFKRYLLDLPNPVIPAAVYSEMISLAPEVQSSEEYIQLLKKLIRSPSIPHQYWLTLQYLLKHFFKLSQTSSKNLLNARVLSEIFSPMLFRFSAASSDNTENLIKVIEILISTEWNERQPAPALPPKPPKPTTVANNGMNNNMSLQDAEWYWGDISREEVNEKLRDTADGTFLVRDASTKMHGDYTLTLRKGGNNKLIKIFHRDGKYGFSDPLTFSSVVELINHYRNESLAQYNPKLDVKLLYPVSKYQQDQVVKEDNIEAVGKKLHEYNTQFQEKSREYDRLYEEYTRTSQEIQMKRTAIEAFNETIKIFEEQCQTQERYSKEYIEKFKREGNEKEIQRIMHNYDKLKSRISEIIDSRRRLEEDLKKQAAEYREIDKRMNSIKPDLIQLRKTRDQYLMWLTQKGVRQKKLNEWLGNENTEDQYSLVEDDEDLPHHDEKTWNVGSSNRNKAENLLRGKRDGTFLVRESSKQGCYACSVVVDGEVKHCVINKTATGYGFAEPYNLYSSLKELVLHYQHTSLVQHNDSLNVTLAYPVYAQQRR

In test [2] the target is GST tagged full length PAK4 (UniProt O96013). The test is described as above.
In test [3] the target is T2, GST tagged PAK4ΔPxxP (PAK4 with the PXXP region deleted, amino acids 1-34 plus 319-591) (UniProt O96013).
T2 sequence: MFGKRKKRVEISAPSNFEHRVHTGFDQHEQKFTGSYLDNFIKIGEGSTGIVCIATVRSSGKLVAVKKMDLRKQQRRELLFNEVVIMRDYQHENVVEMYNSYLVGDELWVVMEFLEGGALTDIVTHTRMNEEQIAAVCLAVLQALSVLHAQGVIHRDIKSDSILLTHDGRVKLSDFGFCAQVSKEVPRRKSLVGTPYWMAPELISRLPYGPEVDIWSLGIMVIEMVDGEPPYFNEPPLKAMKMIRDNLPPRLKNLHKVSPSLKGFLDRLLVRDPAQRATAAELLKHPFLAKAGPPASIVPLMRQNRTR
The description is as above.

Test [4] concerns the target GST tagged full length PAK4 (UniProt O96013). As to the kind of experiment: pull-down; PaTu8988T cell lysates incubated with GST or GST-PAK4; pull-down probed for endogenous p85alpha; only the target purified.

Results are given in words; binding and its absence hold for the method and conditions named. Binding seen in cells or lysates may run through a third protein. Some entries that bind do so weakly or less than the wild type. For part of these data: Tags and fused reporters may be left off the sequences shown.

In the case of “GFP tagged full length p85α (regulatory subunit of PI3K) (from UniProt P27986 1-724)”, the binding entry in test [1] and in test [2] was “binds” throughout.
On to “GFP-p85alpha ΔSH3 (missing the SH3 domain, amino acids 80-724) (from UniProt P27986 80-724) (domain or fragment)”, for which the binding entry in test [1], in test [3] and in test [2] was “no binding” each time.
Take “GFP-p85alpha-SH3 domain alone (amino acids 1-85) (from UniProt P27986 1-85) (domain or fragment)”: the binding entry in test [1] is “binds”; in test [3] it was “no binding”; in test [2], “binds”.
With “endogenous p85α (from UniProt P27986 1-724)”, the binding result in test [4] was “binds”.

The values above are taken from PMC5312077.
